Measured values published in PubChem BioAssay (NCI).
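These data come from cells grown in 96-well plates and exposed to compound for 48 hours at five concentrations. GI50 = concentration required for 50% inhibition of growth. Definition used: TGI = concentration required for complete inhibition of growth.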

test system: NCI-H322M lung; assay: NCI-60 cell line screen, 48 h

Question: With `O=P1(N2CCOCC2)OCCO1` as the compound, how does the TGI read?
Answer: > 100 µM

Question: How did the TGI turn out when `CC(C)(C)OC(=O)[C@@H]1CCC(=O)N1C1(c2ccccc2)c2ccccc2-c2ccccc21` was run?
Answer: > 100 µM

Question: With `CC(C)(C)OC(=O)NC12C3C4C1C1C2C3C41NC(=O)OC(C)(C)C` (centres undefined) as the compound, how does the TGI read?
Answer: > 100 µM

Question: With `CC(=O)n1cc(C2CC23N=C(c2ccccc2)OC3=O)c2ccccc21` (centres undefined) as the compound, how does the TGI read?
Answer: > 86 µM

Question: With `Cc1c(C(=O)C/C(=N/NC(=O)c2ccccc2)C(=O)Nc2ccc(Cl)cc2)[n+](=O)c2ccccc2n1[O-]` as the compound, how does the TGI read?
Answer: > 100 µM

Question: With `C=C(C)[C@@H]1CCC=C2CC[C@]3(C)[C@H](CC[C@@H]4[C@@]5(C)CCCNC(C)(C)[C@@H]5CC[C@]43C)[C@H]21` as the compound, how does the GI50 read?
Answer: 2.18 µM

Question: What about the TGI of the same compound?
Answer: 5.38 µM

Question: `Cc1cc2[nH]c3c(C#N)c(-c4ccccc4)c(N=Nc4ccc(F)cc4)c(=O)n3c2cc1C` was tested. Which TGI did it give?
Answer: > 100 µM

Question: How did the TGI turn out when `O=C(O)CSc1ccccc1C(=O)O` was run?
Answer: > 100 µM

Question: Which TGI does the source give for `Cc1cc(-n2nnc(C(=O)O)c2-c2ccccc2)c2ccc(Cl)cc2n1` here?
Answer: > 100 µM

Question: Which results are given for `Cc1cn2c(/C=C3/C(=O)Nc4c3ccc3ccccc43)c(C(F)(F)F)nc2s1`?
Answer: GI50: 3.95 µM; TGI: > 100 µM

Question: `O=C(O)CCC(=O)OCN1C(=O)C2C3C=CC(C2C1=O)C1C2C(=O)N(COC(=O)CCC(=O)O)C(=O)C2C31` (centres undefined) was tested. Which TGI did it give?
Answer: > 100 µM

Question: How did the GI50 turn out when `CCCCNNC(=O)c1ccc(Br)cc1` was run?
Answer: 10.4 µM

Question: What about the TGI of the same compound?
Answer: > 50 µM

Question: With `CC(C)N(C(=O)c1cccc(C(=O)N(C(C)C)C(C)C)c1)C(C)C` as the compound, how does the TGI read?
Answer: > 100 µM

Question: `CCOC(=O)/C(C(N)=O)=C(\O)C(=O)/C(Br)=C(\O)c1ccccc1` was tested. Which TGI did it give?
Answer: > 76.6 µM

Question: With `O=C(O)C(Cc1cnc[nH]1)N1C(=O)c2ccccc2C1=O` (centres undefined) as the compound, how does the TGI read?
Answer: > 100 µM

Question: For `CCC[CH2][Sn]([CH2]CCC)([O]C(=O)c1cc(OC)c(OC)cc1OC)[O][Sn]([CH2]CCC)([CH2]CCC)[O]C(=O)c1cc(OC)c(OC)cc1OC`, which GI50 is on record?
Answer: 1.32 µM

Question: What about the TGI of the same compound?
Answer: 2.61 µM

Question: For `CC(C(=O)OCc1ccccc1)N(Cc1ccccc1)Cc1ccccc1` (centres undefined), which TGI is on record?
Answer: > 100 µM

Question: For `O=C(c1ccccc1)c1ccc2nc(-c3c(Cl)c(Cl)c(Cl)c(Cl)c3-c3nnc(-c4ccccc4)o3)[nH]c2c1`, which TGI is on record?
Answer: > 100 µM

Question: With `Cc1cc(C)c2c(c1)CC1(Cc3cc(C)c(C)cc3C1=O)C2=O` (centres undefined) as the compound, how does the TGI read?
Answer: > 100 µM

Question: For `COc1ccc2c(c1)nc(NNC(=O)c1cnccn1)c1cccn12`, which GI50 is on record?
Answer: 0.119 µM

Question: What about the TGI of the same compound?
Answer: 5.02 µM

Question: With `CCc1cccc2c3c([nH]c12)-c1ccccc1NC(=O)C3` as the compound, how does the TGI read?
Answer: > 100 µM

Question: With `C1=NCCNCCNCCN=Cc2ccc(cc2)OCc2cccc(n2)COc2ccc1cc2` as the compound, how does the TGI read?
Answer: > 100 µM

Question: What does the source list for `OCCCCC#Cc1ccccc1C#Cc1ccc(O)cc1`?
Answer: GI50: 13.7 µM; TGI: 28.3 µM

Question: `Cc1ccc(S(=O)(=O)N2C[C@@H]3CC[C@]4(CO[Si](C)(C)C(C)(C)C)N[C@@H](c5ccccc5)[C@H]2[C@H]34)cc1` was tested. Which TGI did it give?
Answer: > 100 µM

Question: Which GI50 does the source give for `O=C(Oc1cccc(Cl)c1)c1ccccc1Nc1ccnc(C(F)(F)F)c1` here?
Answer: 23.3 µM

Question: What about the TGI of the same compound?
Answer: 66.1 µM

Question: `COC(=O)c1ccccc1C1CN=NC12Cc1c(ccc3c1CCC3)C2=O` (centres undefined) was tested. Which TGI did it give?
Answer: > 100 µM

Question: With `COc1ccccc1N=Nc1c(-c2ccccc2)nn(C(=O)CC(=O)Nc2cccc(C)c2)c1-c1ccccc1` as the compound, how does the TGI read?
Answer: > 100 µM

Question: How did the TGI turn out when `ClC(Cl)(Cl)C1CCOC1n1nnc2ccccc21` (centres undefined) was run?
Answer: > 100 µM

Question: Which TGI does the source give for `CCCCc1ccc(Nc2ncc3ncn(COCCO)c3n2)cc1` here?
Answer: > 100 µM

Question: How did the TGI turn out when `Cc1ccc(S(=O)(=O)N/N=C(\c2nc3ccc(Cl)cc3[nH]c2=O)C(O)c2ccco2)cc1` (centres undefined) was run?
Answer: > 100 µM

Question: For `COC(C)(C)[C@@H](O)[C@H](O)C[C@H](C)C1=C2CC[C@@H]3[C@@]4(C)CC[C@@H](OC(C)=O)C(C)(C)[C@@H]4C[C@@H](OC4OC(COC(C)=O)C(O)C(O)C4O)[C@@]3(C)[C@]2(C)CC1` (some centres undefined), which GI50 is on record?
Answer: 12.8 µM

Question: What about the TGI of the same compound?
Answer: 25.5 µM

Question: With `Cn1cnc(N)c(N=O)c1=O` as the compound, how does the TGI read?
Answer: > 10 µM

Question: Which TGI does the source give for `COC(=O)CCC(NC(=S)N/N=C(\C)c1ccc[nH]1)C(=O)OC` (centres undefined) here?
Answer: > 100 µM

Question: Which TGI does the source give for `O=C(COc1ccc(OCC(=O)N2C(=O)CC(=O)N(c3ccc(Cl)cc3)C2=S)cc1)N1C(=O)CC(=O)N(c2ccc(Cl)cc2)C1=S` here?
Answer: 56.3 µM

Question: How did the TGI turn out when `Cc1cc(S(=O)(=O)Nc2nc3ncccc3[nH]2)c(S)cc1Cl` was run?
Answer: > 100 µM

Question: For `CCOC(=O)c1ccc(Nc2nc3ccccc3nc2-c2cccs2)cc1`, which TGI is on record?
Answer: > 100 µM

Question: For `C=C1C(=O)O[C@H]2[C@H]1CC/C(COC(=O)CCCCCC(=O)OC/C1=C/CC[C@@]3(C)O[C@H]3[C@H]3OC(=O)C(=C)[C@@H]3CC1)=C\CC[C@@]1(C)O[C@@H]21`, which GI50 is on record?
Answer: 6.99 µM

Question: And the TGI?
Answer: 20 µM

Question: With `COc1cc(/C=C/c2ccc(C)cc2)cc(OC)c1OC` as the compound, how does the TGI read?
Answer: 29.2 µM

Question: How did the GI50 turn out when `COc1ccccc1/C=C1\COc2ccc(-c3ccccc3)cc2C1=O` was run?
Answer: 2.07 µM

Question: What about the TGI of the same compound?
Answer: 8.53 µM

Question: For `COc1cc2c3c(n(CCCN)c(=O)c2cc1OC)-c1ccc([N+](=O)[O-])cc1C3=O`, which GI50 is on record?
Answer: 16.3 µM

Question: And the TGI?
Answer: 33.9 µM

Question: With `OC1(c2ccccc2)C2CC=CC2C1(c1ccccc1)c1ccccc1` (centres undefined) as the compound, how does the TGI read?
Answer: > 100 µM

Question: Which TGI does the source give for `CC(C)C1CO[C@]2(C)CCC(=O)N12` (some centres undefined) here?
Answer: > 100 µM

Question: How did the TGI turn out when `CC(C)(C)OC(=O)N/C(C=O)=C\C1CCCCC1` was run?
Answer: 67 µM

Question: For `CSC(SC)=C(C#N)C(=O)Nc1cccc(Cl)c1`, which TGI is on record?
Answer: > 100 µM

Question: With `N#Cc1nc2cc(Cl)ccc2nc1N1CCN(c2ccc([N+](=O)[O-])cc2)CC1` as the compound, how does the TGI read?
Answer: > 100 µM

Question: How did the TGI turn out when `O=C1NC(=O)c2ccccc2/C1=C/c1ccc2c(c1)OCO2` was run?
Answer: > 100 µM

Question: `COc1ccc2c(c1)/C(=C\c1ccncc1)C(=O)N2` was tested. Which GI50 did it give?
Answer: 7.87 µM

Question: What about the TGI of the same compound?
Answer: 31.6 µM
